System: Huh7 cells that stably maintain a subgenomic HCV replicon (S22.3 cell-line)
Test: Cell based HCV RNA replication assay (S22.3 replicon cells, real-time RT-PCR)
Details: Hepatitis C virus
[1] = Huh-7, 72 h, S22.3 cells, 72 hours incubation, HCV RNA by RT-PCR

For `Cn1c(-c2ccccn2)c(C2CCCCC2)c2ccc(C(=O)NC(C)(C)C(=O)Nc3ccc(-c4ccc(C(N)=O)o4)cc3)cc21` [Entry 2073], the EC50 [1] was < 500 nM.

`Cn1c(-c2ccccn2)c(C2CCCCC2)c2ccc(C(=O)NC(C)(C)C(=O)Nc3ccc(N)cc3)cc21` [Entry 2072, 3-Cyclohexyl-1-methyl-2-pyridin-2-yl-1H-indole-6-carboxylic acid[1-(4-amino-phenylcarbamoyl)-1-methyl-ethyl]-amide] was tested, and the EC50 [1] was < 500 nM.

With `Cn1c(-c2cccc(N)c2)c(C2CCCC2)c2ccc(C(=O)NC3(C(=O)Nc4ccc(-c5ccc(C(=O)O)o5)cc4)CCC3)cc21` [Entry 7050] the EC50 (Huh-7, Table 7) was < 500 nM.

For `O=C(O)/C=C/c1ccc(NC(=O)C2(NC(=O)c3ccc4c(C5CCCC5)c(-c5ccccn5)[nH]c4c3)CCC2)cc1` [Entry 6121], the EC50 (Huh-7, Table 6) was < 500 nM.

For `CC(C)C(=O)Nc1nc(-c2c(C3CCCC3)c3ccc(C(=O)NC(C)(C)C(=O)Nc4ccc(/C=C/C(=O)O)cc4)cc3n2C)cs1` [Entry 6027], the EC50 (Huh-7, Table 6) was < 500 nM.

`Cn1c(-c2ccccn2)c(C2CCCC2)c2ccc(C(=O)NC3(C(=O)Nc4ccc(/C=C/C(=O)O)cc4)CC3)cc21` [Entry 6036] was tested, and the EC50 (Huh-7, Table 6) was < 500 nM.

In the case of `O=C(O)/C=C/c1ccc(NC(=O)C2(NC(=O)c3ccc4c(C5CCCCC5)c(-c5cccs5)[nH]c4c3)CCCC2)cc1` [Entry 2042], the EC50 [1] is reported as < 500 nM.

In the case of `CC(=O)Nc1ccc(-c2c(C3CCCCC3)c3ccc(C(=O)NC(C)(C)C(=O)Nc4ccc(/C=C/C(=O)O)cc4)cc3n2C)cc1C` [Entry 2104], the EC50 [1] is reported as < 500 nM.

`Cn1c(C(=O)O)cc2cc(NC(=O)C(C)(C)NC(=O)c3ccc4c(C5CCCCC5)c(-c5ccccn5)n(C)c4c3)ccc21` [Entry 2093] was tested, and the EC50 [1] was < 500 nM.

In the case of `C/C(=C\c1ccc(NC(=O)C2(NC(=O)c3ccc4c(C5CCCC5)c(-c5ccccn5)n(C)c4c3)CCC2)cc1)C(=O)O` [Entry 7011], the EC50 (Huh-7, Table 7) is reported as < 500 nM.

For `Cn1c(C(N)=O)cc2cc(NC(=O)C(C)(C)NC(=O)c3ccc4c(C5CCCCC5)c(-c5ccccn5)n(C)c4c3)ccc21` [Entry 2075], the EC50 [1] was < 500 nM.

`O=C(NC1(C(=O)Nc2ccc3c(Cl)c(C(=O)O)sc3c2)CCCC1)c1ccc2c(C3CCCCC3)c(-c3ccoc3)[nH]c2c1` [Entry 2013] was tested, and the EC50 [1] was < 500 nM.

For `Cn1c(-c2cnccn2)c(C2CCCC2)c2ccc(C(=O)NC3(C(=O)Nc4ccc(/C=C/C(=O)O)cc4)CCCC3)cc21` [Entry 6063], the EC50 (Huh-7, Table 6) was < 500 nM.

`CC(C)(NC(=O)c1ccc2c(C3CCCCC3)c(-c3ccccc3)[nH]c2c1)C(=O)Nc1ccc(-c2nc(C(=O)O)cs2)cc1` [Entry 2018] was tested, and the EC50 [1] was < 500 nM.

In the case of `Cn1c(-c2csc(Nc3ccccn3)n2)c(C2CCCC2)c2ccc(C(=O)NC(C)(C)C(=O)Nc3ccc(/C=C/C(=O)O)cc3)cc21` [Entry 6015], the EC50 (Huh-7, Table 6) is reported as < 500 nM.

With `Cn1c(-c2cscn2)c(C2CCCC2)c2ccc(C(=O)NC3(C(=O)Nc4ccc(/C=C/C(=O)O)cc4)CCC3)cc21` [Entry 6070] the EC50 (Huh-7, Table 6) was < 500 nM.

`Cn1c(-c2ccccn2)c(C2CCCC2)c2ccc(C(=O)NC3(C(=O)Nc4ccc(-c5cnc(N)nc5)cc4)CCC3)cc21` [Entry 7065] showed an EC50 (Huh-7, Table 7) of 500 to 5000 nM.

In the case of `Cc1cccc(-c2c(C3CCCC3)c3ccc(C(=O)NC4(C(=O)Nc5ccc(-c6ccc(C(=O)O)o6)cc5)CCC4)cc3n2C)n1` [Entry 7020], the EC50 (Huh-7, Table 7) is reported as < 500 nM.

In the case of `CCn1c(-c2ccoc2)c(C2CCCCC2)c2ccc(C(=O)NC(C)(C)C(=O)Nc3ccc(/C=C/C(=O)O)cc3)cc21` [Entry 2054], the EC50 [1] is reported as < 500 nM.

`COCCNc1nc(-c2c(C3CCCC3)c3ccc(C(=O)NC(C)(C)C(=O)Nc4ccc(/C=C/C(=O)O)cc4)cc3n2C)cs1` [Entry 6020] was tested, and the EC50 (Huh-7, Table 6) was < 500 nM.

For `CCNc1nc(-c2c(C3CCCC3)c3ccc(C(=O)NC4(C(=O)Nc5ccc(/C=C/C(=O)O)cc5)CCC4)cc3n2C)cs1` [Entry 6073], the EC50 (Huh-7, Table 6) was < 500 nM.

In the case of `Cn1c(-c2cncc(C(N)=O)c2)c(C2CCCCC2)c2ccc(C(=O)NC(C)(C)C(=O)Nc3ccc(/C=C/C(=O)O)cc3)cc21` [Entry 2103], the EC50 [1] is reported as < 500 nM.

For `Cc1c(C(=O)O)sc2ccc(NC(=O)[C@]3(NC(=O)c4ccc5c(C6CCCC6)c(-c6ccccn6)n(C)c5c4)CCN(C)C3)cc12` [Entry 7057], the EC50 (Huh-7, Table 7) was < 500 nM.

For `O=C(O)/C=C/c1ccc(NC(=O)C2(NC(=O)c3ccc4c(C5CCCC5)c(-c5ccccn5)sc4c3)CCC2)cc1` [Entry 8001], the EC50 [1] was 500 to 5000 nM.
